Data reported in the supplement of paper PMC3334620.
The full ranking holds about 33,000 sequences; the median of “E-score (-0.5 to 0.5)” is about -0.017, and the highest 2% start at about 0.3. The list shows a part of the results.

Molecular target: T1, Sut1 (UniProt P53032)
T1 sequence: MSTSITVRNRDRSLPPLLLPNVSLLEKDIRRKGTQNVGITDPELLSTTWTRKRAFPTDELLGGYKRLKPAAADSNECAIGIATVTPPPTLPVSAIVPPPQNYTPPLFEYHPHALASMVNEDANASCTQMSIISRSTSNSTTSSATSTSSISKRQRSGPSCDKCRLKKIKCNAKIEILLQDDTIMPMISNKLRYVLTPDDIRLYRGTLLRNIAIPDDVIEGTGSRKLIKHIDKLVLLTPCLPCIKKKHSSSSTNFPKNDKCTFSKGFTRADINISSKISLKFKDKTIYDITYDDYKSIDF
Assay: PBM E-score (8-mer binding enrichment) (E-score (-0.5 to 0.5)); higher = stronger / more preferred TF binding; most listed sequences are background and not binding sites
Details: protein concentration: 200 nM; construct: GST-full length
Experimental: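 Universal 'all 10-mer' protein binding microarrays (Agilent AMADID 015681) probed with GST-tagged S. cerevisiae TFs (full-length or DBD) made by in vitro transcription/translation (PURExpress), about 100-200 nM. Bound TF was detected with fluorescent anti-GST. Each ungapped 8-mer (which stands for itself and its reverse complement) is scored by the PBM enrichment score (E-score), a modified Wilcoxon-Mann-Whitney statistic from -0.5 to +0.5, computed with the Universal PBM Analysis Suite. Scale: above 0.35 generally sequence-specific binding.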

Sequence | PBM E-score
AACCACAC | 0.0208
TATCAATA | 0.0986
GTACCTTA | 0.149
CAATGCAA | -0.0619
GCCTAACA | -0.0562
ATGATACC | 0.0548
AACGCTGC | -0.192
AGGGAGAT | -0.354
AAGTGAAC | -0.0118
CAAATGTG | 0.127
GTGCTCCA | -0.191
ACAAAAGC | 0.0815
GCACACAA | 0.112
AAGTGTCA | -0.177
GCTCGTAA | -0.0601
ACTCGGCA | 0.018
GCCACTAA | -0.00433
AATCCAAG | 0.0535
TACCTATA | 0.00304
TCCGGACA | 0.415
AAGTAAAA | 0.113
CGCCGCCA | 0.0467
CCGTACCC | -0.18
AAAACCTA | 0.146
AAGCCGAA | 0.182

Sequence | PBM E-score
ACTGACTA | -0.136
GTTTAATA | 0.215
ACCTCTAT | -0.0477
GATCGCGA | 0.0749
TGACGAAA | 0.0812
TACGGAGA | 0.32
CTGTACAA | 0.0205
CCGGTAAG | 0.2
TAACGCGA | -0.072
GCGCTCTA | 0.00585
ATGGGGAG | -0.155
GGTTTCGA | -0.16
TATCTAAA | 0.0819
AAAAAGCC | 0.272
AGATTGTA | 0.131
TACACGGA | 0.335
GCCACAGC | -0.254
ATCTGTAG | -0.0133
AAGCGACG | -0.161
AACTCAAA | 0.0515
CAGGGCAC | -0.258
GCAGTACC | -0.0523
AGTAATAG | 0.063
AGGGGCCA | -0.322
CTCGACTA | -0.174

Sequence | PBM E-score
CGATGGCC | -0.111
GTAGGTGA | -0.194
CGTAAGCC | -0.065
TCAGATGA | 0.0689
CCCACTAG | -0.248
GTGAGCTA | -0.0193
AAAACGTC | 0.0907
CACATCGC | -0.243
TATGTACA | 0.0901
GTCAAAAC | 0.0199
GATAGTAA | 0.145
AGGCCCGC | -0.133
AAAGCCAC | 0.111
CTCTGAAG | -0.133
CATGAGAC | -0.0808
ACTGCCTC | -0.21
CAAGACCG | 0.0398
AACCGTCT | -0.234
TGGCCTAA | -0.22
ATCATCCA | -0.0546
TGCATCAA | 0.0695
GGCGCATA | -0.156
ATATAAAG | 0.177
CTGGAGAC | -0.209
TGACTGCA | -0.221

Sequence | PBM E-score
AAAGGACG | 0.00144
AAAAATTG | 0.122
TGGCATAA | 0.214
CGACATAG | -0.154
GGGGCGAC | -0.168
CGTACGCA | -0.00898
TCCTGCAA | -0.11
ACATCGCC | -0.112
CGTTCTTA | -0.0311
CAATGCCA | 0.00632
AACCATTC | 0.0582
TAGAAGAA | 0.104
CGCCATAC | -0.239
AGTTTTAT | 0.211
CCGAAGTA | 0.203
CAAATAAC | 0.169
AATCAACT | 0.183
AGTTACAC | 0.0598
GCAGGATA | -0.181
AGTTGGAT | 0.192
CGACATAC | -0.0133
GACGGCAC | -0.312
ATATAGAG | 0.0735
CAGAATCG | 0.0859
ACCTCCTA | -0.289

Sequence | PBM E-score
AAGCGGGT | -0.14
ATTCCCTC | -0.233
GAACAGAA | 0.168
CCTTAAGA | -0.0607
GTAAAGTA | 0.134
GCACGACC | -0.248
CCAATGTA | -0.0169
AACCAGAG | -0.168
CAAGTGTC | -0.124
CCGGTTAA | 0.141
CGTTACTC | -0.00241
AGCCGGAC | 0.342
CGCAGGTA | 0.0561
CGCCCCCC | -0.414
GGGGAGAA | -0.147
GCCTTCCA | -0.124
AATTGGCC | -0.134
ATTTATAC | 0.286
GACCCGAC | 0.0578
TATCATGA | 0.0115
ACCTAGAA | 0.107
CCAAACGG | -0.0241
ACCTTATA | 0.0666
AAAGTTTG | 0.153
ATACAGCG | -0.102

Sequence | PBM E-score
CTTATAAC | 0.221
GCTCAGTA | 0.0603
ACGAGTAA | 0.105
CTACCCAC | -0.294
CTCGGCCA | -0.0126
ACAATTCA | 0.165
ACACCTGC | -0.156
ATGTATTC | 0.171
TCCTGTAA | 0.0385
ACTGCTGG | -0.175
CGTGCACC | -0.207
GATCACCC | -0.0925
CTGCGAGA | -0.244
ACCTACTG | -0.215
CGGAATTC | 0.323
CTTATTAC | 0.224
ACCGTGCC | -0.128
ACGTACTG | -0.0657
CCCGGGCG | 0.0238
CACGTAGG | -0.136
ACGTGCTC | -0.0287
ATACTAAC | 0.0793
ACGGCTCA | -0.0994
CAGAAGCA | 0.0517
CGCAGTGC | -0.23

Sequence | PBM E-score
TCAACAGA | -0.00677
ACGTATCG | -0.029
AGCGAGAA | -0.00317
AAAAGATA | 0.207
CCATCCCG | -0.243
CTTATCCA | 0.082
ACCATGGC | -0.0281
GATTTGCA | 0.115
AACCGATA | 0.116
TATCTCAA | 0.242
AACTCCTG | -0.099
CGAGACCG | 0.0521
GGCAATAC | -0.0369
GCCTTCGA | -0.0899
AAGCAGAC | -0.143
AGTGGAAA | 0.0173
ACATCTAG | 0.0823
CTTCATAC | 0.185
ATCAACAC | 0.0956
CTGAAAGA | 0.0382
CCGTGCGA | -0.00599
TCTAGACA | -0.0621
ATCGGGCC | -0.259
CTGTCGCC | -0.302
GCGAGTCC | 0.172

Sequence | PBM E-score
CTTGAGCC | -0.292
AATCAACA | 0.228
CGCCTGGA | -0.255
GAGCTCTA | 0.0385
ACGTAAGA | -0.00585
GACTCGAA | 0.0185
TAATTCAA | 0.257
GATGGCGC | -0.246
CGTGGATC | -0.154
CTGTCAAA | 0.00742
ATAGGCAT | -0.0157
ACTACTAT | 0.253
GTCACACA | -0.0272
CATCTAAG | -0.107
AGACCTAC | -0.036
TCGATAAA | 0.127
CACTTTGG | -0.115
GCCTTCAC | -0.0368
AGGGGTTA | -0.273
AAATGGGA | 0.0266
CAAATTGG | 0.083
AGACGGCC | -0.259
GCGAAAAA | 0.177
AACATGCA | 0.0784
AGACCCTG | -0.364

Sequence | PBM E-score
GGTTTTAA | 0.27
TAATCGAA | 0.0525
CCTAGCTC | -0.0813
CAAGATGG | -0.155
CCACTGCA | -0.275
GGCTTGAA | -0.0304
CCAACCCG | -0.172
GGTGTGAA | 0.0943
CCTAATAG | -0.0595
ACATTAGA | 0.138
CGTTGCAG | -0.136
GTGCTTTA | -0.00213
CCTTTGCC | -0.117
AATTCGTA | 0.114
GAGAGCGA | -0.141
CACACATG | -0.0887
CCGGTTGC | 0.123
AATGGCGA | 0.248
ACACCGTG | -0.201
